# Reference: the supplement of paper PMC7826260
# The other results are listed elsewhere or left out. Viral Rep nickase domains cut single-stranded DNA in vitro (3 µM enzyme, 1 h, 37 °C); shown is the middle of each 90-letter strand. A value is the log2 ratio of uncut reads to the pool without enzyme; the lower, the more was cut; hits are not called. Reads are scaled to the total, so uncut sequences can rise above 0 when many others are cut.
# What was measured:
# Test in all cases: uncleaved DNA left, log2 of reads against the no-enzyme library (log2 ratio); higher = less cleavage (more negative = more Rep cleavage of the k-mer); sequences stand for … in CTCGTCCG…ACCGGAGA
# [1] = system: T1, Rep nickase domain of Muscovy duck circovirus
# T1 sequence (protein, residues 1-111, tag omitted): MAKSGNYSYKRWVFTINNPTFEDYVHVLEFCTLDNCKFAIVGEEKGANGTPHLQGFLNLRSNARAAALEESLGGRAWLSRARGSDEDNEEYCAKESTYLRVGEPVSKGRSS
# Protocol: (§1)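 A pool of 90-nt single-stranded DNAs with seven random bases just before the constant AC of the nick site (name = the seven bases) was cut by 3 µM recombinant His6-SUMO-tagged Rep nickase domain (300 nM DNA, 50 mM HEPES pH 8.0, 50 mM NaCl, 1 mM MnCl2, 1 h, 37 °C, three replicates). Uncut DNA was amplified and sequenced.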
# [2] = system: T2, Rep nickase domain of banana bunchy top virus
# T2 sequence (protein, residues 1-94, tag omitted): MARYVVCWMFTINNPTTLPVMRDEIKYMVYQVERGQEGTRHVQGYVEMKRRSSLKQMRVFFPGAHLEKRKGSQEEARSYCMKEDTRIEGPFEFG
# Protocol: as §1
# [3] = system: T3, Rep nickase domain of cabbage leaf curl virus
# T3 sequence (protein, residues 1-116, tag omitted): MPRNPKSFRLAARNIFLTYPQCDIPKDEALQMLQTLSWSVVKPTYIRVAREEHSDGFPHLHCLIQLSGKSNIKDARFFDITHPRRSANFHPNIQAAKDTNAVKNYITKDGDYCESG
# Protocol: as §1
# [4] = system: T4, Rep nickase domain of chickpea chlorotic dwarf virus
# T4 sequence (protein, residues 1-124, tag omitted): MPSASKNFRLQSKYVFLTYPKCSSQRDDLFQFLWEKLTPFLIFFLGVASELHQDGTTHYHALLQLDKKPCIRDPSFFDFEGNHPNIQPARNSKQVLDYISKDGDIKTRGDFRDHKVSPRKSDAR
# Protocol: as §1
# [5] = system: T5, Rep nickase domain of faba bean necrotic yellows virus
# T5 sequence (protein, residues 1-98, tag omitted): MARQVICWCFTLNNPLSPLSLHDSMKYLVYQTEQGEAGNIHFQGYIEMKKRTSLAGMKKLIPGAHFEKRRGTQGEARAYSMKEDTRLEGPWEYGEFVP
# Protocol: as §1
# [6] = system: T6, Rep nickase domain of maize striate mosaic virus
# T6 sequence (protein, residues 1-117, tag omitted): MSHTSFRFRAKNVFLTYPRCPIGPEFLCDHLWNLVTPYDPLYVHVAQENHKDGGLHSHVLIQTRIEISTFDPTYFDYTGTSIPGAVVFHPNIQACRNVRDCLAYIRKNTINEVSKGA
# Protocol: as §1
# [7] = system: T7, Rep nickase domain of porcine circovirus 2
# T7 sequence (protein, residues 2-116, tag omitted): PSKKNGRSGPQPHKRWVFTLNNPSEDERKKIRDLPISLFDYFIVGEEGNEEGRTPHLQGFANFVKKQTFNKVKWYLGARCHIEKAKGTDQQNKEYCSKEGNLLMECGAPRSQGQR
# Protocol: as §1
# [8] = system: T8, Rep nickase domain of tomato golden mosaic virus
# T8 sequence (protein, residues 1-124, tag omitted): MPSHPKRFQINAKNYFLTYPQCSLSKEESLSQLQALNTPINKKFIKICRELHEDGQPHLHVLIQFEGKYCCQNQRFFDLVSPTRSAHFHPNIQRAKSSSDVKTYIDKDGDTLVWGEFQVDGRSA
# Protocol: as §1
# [9] = system: T9, Rep nickase domain of tomato yellow leaf curl virus
# T9 sequence (protein, residues 1-136, tag omitted): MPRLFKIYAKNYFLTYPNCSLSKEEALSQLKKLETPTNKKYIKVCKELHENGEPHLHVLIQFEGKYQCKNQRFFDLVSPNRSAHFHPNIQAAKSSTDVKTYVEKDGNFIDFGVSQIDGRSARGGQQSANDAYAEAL
# Protocol: as §1
# [10] = system: T10, Rep nickase domain of wheat dwarf virus
# T10 sequence (protein, residues 1-137, tag omitted): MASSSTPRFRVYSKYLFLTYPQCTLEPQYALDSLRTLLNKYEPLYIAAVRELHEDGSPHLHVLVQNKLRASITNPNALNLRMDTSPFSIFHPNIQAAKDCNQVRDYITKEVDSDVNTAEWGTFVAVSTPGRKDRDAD
# Protocol: as §1
Sequence,uncleaved DNA left (log2) [1],uncleaved DNA left (log2) [2],uncleaved DNA left (log2) [3],uncleaved DNA left (log2) [4],uncleaved DNA left (log2) [5],uncleaved DNA left (log2) [6],uncleaved DNA left (log2) [7],uncleaved DNA left (log2) [8],uncleaved DNA left (log2) [9],uncleaved DNA left (log2) [10]
TTCAAGG,0.168,0.215,0.705,1.69,0.157,1.97,0.227,0.258,0.0741,0.216
GTCGGCC,0.0532,0.0804,0.276,0.856,0.0294,1.01,0.147,0.149,0.127,0.108
CTTGTAG,0.119,0.018,-0.727,-0.286,-0.00487,-1.01,0.241,-0.0232,0.13,-0.0299
GGGATGG,-0.0306,0.0102,0.857,1.88,0.0387,2.17,0.21,0.0186,0.0358,0.0817
TCTCCGT,-0.026,-0.0993,-0.0474,-0.174,-0.0994,0.274,-0.0465,-0.113,-0.136,-0.0756
TTCTTCA,-0.0936,-0.0687,0.121,-0.959,0.0115,-0.083,-0.293,-0.142,0.0323,0.0101
GCCGTAC,0.0625,-0.112,0.143,0.16,-0.068,0.119,-0.032,0.0304,-0.0533,-0.0298
AATAAAA,0.0585,0.0567,-0.0427,-0.316,0.0555,-0.657,0.118,0.165,-0.0224,0.117
CTAGGAC,-0.0458,-0.0833,0.31,1.15,-0.0717,1.05,0.0786,0.0866,0.00399,0.0418
TTAGGAC,-0.187,0.0871,0.313,1.21,-0.0292,1.16,0.202,0.167,-0.0414,0.14
TTCGGGC,0.0514,-0.0127,0.276,0.211,-0.0346,0.0685,0.103,-0.0857,-0.0185,-0.0243
TGCGCGG,0.0501,0.0953,0.268,0.911,0.132,1.7,0.0685,0.157,-0.0555,0.0314
CCTTGCA,0.047,0.0559,-0.777,-0.863,0.122,-1.17,0.176,0.00541,0.214,-0.0704
GACCGCG,-0.0215,-0.0118,-0.551,0.734,-0.00753,-0.142,-0.0423,-0.0221,0.0596,-0.0598
AAGGTGT,0.0943,0.101,0.172,1.33,0.156,1.6,0.149,0.123,-0.144,-0.0627
GAAGTGA,0.171,0.0234,-0.0127,0.322,0.0666,-0.163,0.121,0.0152,0.02,0.0647
GACCTAT,-0.107,-0.0779,0.0838,0.0716,-0.0568,0.83,-0.238,-0.0651,-0.106,0.101
AATCCAA,0.0176,0.0739,-0.00207,-0.349,-0.0091,-0.55,-0.0671,-0.0647,0.0955,0.159
GGCGTGG,0.0817,0.103,0.132,0.539,-0.0489,1.14,0.0803,0.107,-0.0818,0.0242
AGGACGA,0.0878,0.0607,0.714,1.64,0.0124,1.8,0.169,0.0135,0.0161,0.157
ATAAGAG,0.0198,0.0696,-0.753,-0.456,0.162,-1.17,0.222,0.0432,0.0711,0.0333
GAATACA,-0.159,0.0192,0.014,-1.64,0.0452,0.69,-0.575,0.0698,0.0979,0.0114
AGACATT,0.101,0.145,0.927,1.83,0.126,2.24,0.229,-0.0731,0.181,0.257
ACAGTGG,0.00583,-0.102,-0.728,-0.545,-0.0436,-1.23,0.182,-0.0589,0.0403,-0.111
AAGTTAA,-0.0964,-0.0383,-0.278,-0.443,0.0524,-0.299,-2.83,0.0217,-0.069,-0.00973
CAAGCAG,-0.0805,-0.0959,-0.0882,0.387,-0.0878,-0.327,0.103,-0.0801,-0.0579,-0.0686
TTTCAGT,0.0751,0.101,0.0675,-0.624,0.0475,-0.724,-0.263,0.0203,0.0424,0.0383
CTGGGGG,-0.0266,-0.13,0.0269,0.0743,-0.0898,-0.297,0.0348,-0.0921,-0.264,-0.209
TCGTGTA,-0.00515,0.0754,0.0595,-0.416,-0.0253,-0.0748,-0.935,0.131,0.0415,-0.0658
CTATGAC,0.18,0.00757,0.0625,0.158,0.155,-0.611,0.0649,0.0321,0.0566,-0.0331
